Measurements from the supplement of paper PMC10126150.
Values marked as one replicate rest on one cluster of the flow cell; about a third of the high ones do not repeat.

Test system: ATP
Assay: switch fluorescence ratio, 500 uM ATP over buffer (Cy3 cluster intensity, sum of 5 cycles each) (fold (ratio)); higher = stronger signal-on switching upon ATP binding; sequences stand for … in TCGTCGGCAGCGTCAGATGTGTATAAGAGACAGTTTTTTTTTTTTTTTTTTTTTTTTT…TC
Conditions: aptamer strand: ATP DNA aptamer (quencher-CACCTGGGGGAGTATTGCGGAGGAAGG + anchor), 100 nM annealed; ATP concentration: 500 uM; one replicate
Outline: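 Cy3-labelled switching-strand clusters on a modified Illumina MiSeq flow-cell were annealed to 100 nM quencher-labelled ATP aptamer and imaged first in selection buffer, then after 15 min with 500 uM ATP at 22 °C. NaOH stripping and re-annealing separated each of five buffer/ATP cycles, and clusters outside 100-1000 RFU were excluded. The fluorescence ratio sums target-cycle Cy3 intensity over buffer-cycle Cy3 intensity per cluster and averages it per switch-domain sequence.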
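Also: ATP exposure 15 min at 22 °C before imaging.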

Row | Sequence | switch fluorescence ratio
1 | TAGCACAGTC | 1.02
2 | GTTTCGCCGG | 1
3 | GCAGTCCGGA | 0.991
4 | TCTAATAAT | 0.964
5 | AAGCTAAGCG | 0.996
6 | AACTTTATCA | 1.01
7 | TCCATCGAAA | 1.08
8 | TTAGATAAGT | 1.02
9 | TGATGATGGC | 0.999
10 | TTAGGTCCCG | 0.99
11 | CTAACCCGGT | 1.03
12 | TAGAATTATA | 0.97
13 | CACTCAGGGG | 1.32
14 | CATTTGACCG | 0.915
15 | ACTCACGATT | 1.41
16 | GAGGTCAGAT | 0.977
17 | GCGGTTTCCA | 1.01
18 | TCTGACATGT | 1.02
19 | ATGAGGGGAT | 0.99
20 | TAAAATCACC | 1.17
21 | TGGTGTACGA | 1.02
22 | GTGATCGTGG | 1.01
23 | GGCATACAGG | 1.02

Row | Sequence | switch fluorescence ratio
24 | GCCATTGGCG | 1.01
25 | ATCCCTTAG | 1.24
26 | TTATAGTGGT | 0.979
27 | CGCGGGATTT | 0.989
28 | CGTGAAGGAG | 0.967
29 | ACTTTGTGTA | 0.992
30 | AATAATGGTC | 1.06
31 | TCCTTGGACG | 1.04
32 | AGATATCACC | 1.04
33 | GGGTAATAGA | 0.932
34 | GACTGGTGGC | 1
35 | GAAGGATACG | 0.976
36 | CCACCCAGCG | 3.37
37 | CGTGGCTGTG | 1.04
38 | GCCTGTCTGT | 0.932
39 | ACCTGCAGAA | 1.04
40 | CCCAGGACAT | 1.06
41 | CCTAGCGAAA | 1.43
42 | CGGAAGTCTG | 0.986
43 | AATCTTTACT | 1.02
44 | TCTTACAACT | 1.01
45 | ATTCGTTCCG | 1.01
46 | TTCTCGTAAA | 1.24

Row | Sequence | switch fluorescence ratio
47 | TAACTCAATG | 1.01
48 | CGGGCCGTTC | 0.952
49 | AGCGTGGCTT | 0.985
50 | AGGTTATAAC | 0.948
51 | TTTGGCCGCC | 0.994
52 | CATCTAGCGC | 1.04
53 | AGGATAAGGT | 0.988
54 | CGGTGGCCGG | 1.03
55 | TTGTGCGGGC | 1.01
56 | GCGCGTGGGC | 1.01
57 | GGATTCCCTG | 1.02
58 | TTACTCCCGG | 1.69
59 | CAGTAGGACA | 0.994
60 | CCGGTTCCGC | 1.3
61 | GCTAGAATCC | 1.02
62 | AAAGCATGTT | 0.971
63 | GTTGCTTGTA | 1
64 | GGTCGACCTT | 0.993
65 | TTGATTGGGT | 1.02
66 | GATGGTGACG | 0.949
67 | CTTTGGTTGG | 0.916
68 | TCGTTGGATA | 1.29
69 | AGGGTTTTT | 1.04

Row | Sequence | switch fluorescence ratio
70 | TTCTTTACAT | 0.986
71 | GAGTACTAGC | 1
72 | GTAATAGCTA | 0.956
73 | TCTGGAGACG | 1.1
74 | ATCAACATGT | 0.975
75 | GGTGGACTAG | 1.08
76 | CTCATAGGGT | 1
77 | TAGCATTTCT | 0.981
78 | AATAGAGCGA | 0.993
79 | CGTGAGGCTC | 1.05
80 | ACTTTCGGTG | 1.01
81 | GGGTCTTATT | 0.996
82 | GCGCTAAT | 1.07
83 | TGCTGAGCGA | 1.07
84 | GATTGACCCG | 0.996
85 | CGTTTTTCCC | 1.04
86 | CGTAACTGGG | 1.03
87 | GGGGCGCGTT | 0.982
88 | ATGTTACCTT | 1.12
89 | GAGGGCTTGA | 1
90 | CCAAGGGGA | 1.01
91 | CAGAAGTTCA | 1.04
92 | GCGCGTCGGT | 1

Row | Sequence | switch fluorescence ratio
93 | CGGTTTACTA | 0.973
94 | GAGTCAAGCA | 1.11
95 | GATTAGCCTG | 1.06
96 | GCTGGGTGAC | 0.975
97 | ATACTTTACA | 1.25
98 | CTGATACTAT | 0.991
99 | CCCCAGAACG | 1.22
100 | AGAGGATTGT | 0.973
101 | GTGACAGTGG | 0.99
102 | GTCCGTAGGT | 1.01
103 | GGGAATACGA | 1.9
104 | ACGTCTGGTC | 0.98
105 | CAAAAAGCAT | 0.983
106 | GCATCTACAG | 1.2
107 | TTGGGACAGA | 1.02
108 | GACAGTGATG | 0.888
109 | CTTTAACGCT | 1.22
110 | TCTGGGAGCC | 0.98
111 | TTATCAGTCG | 0.971
112 | CAGGCTAGTC | 1
113 | TTCTAGAGCG | 1.02
114 | TGAACGTGCA | 1.03
115 | GTTGGCCAAA | 0.998

Row | Sequence | switch fluorescence ratio
116 | CTTAACTGGT | 1.05
117 | CGGACACCAG | 1.01
118 | GGAGCGGCTG | 1.01
119 | TGGATATGGC | 0.926
120 | AGTACCTGCA | 1.12
121 | TAAAGCGCGC | 0.95
122 | TAAGAAAGCT | 1.2
123 | ATCAAGGAGT | 0.956
124 | TTGCTTTAGT | 1.02
125 | AAGGTATGAC | 1.02
126 | ATAAACATGT | 0.973
127 | CCAGGGCATT | 1.13
128 | CTCGATTGTG | 0.999
129 | ATTAGGTCC | 0.985
130 | CCATATTACG | 1.03
131 | TTCCTGACAA | 1.01
132 | CTGTCTGGG | 0.997
133 | GTCTGTGATT | 0.993
134 | ACTGGATTCG | 0.99
135 | AGACAGGCTT | 1.05
136 | CAGGGAGTTT | 1.01
137 | CGCAATCACC | 4.16
138 | CCCATTTCT | 0.999

Row | Sequence | switch fluorescence ratio
139 | TCATATTCAT | 0.925
140 | TTCTATACGA | 1.06
141 | TAGTCGGTCT | 0.989
142 | GACGTTTTAT | 1.01
143 | AAACCGGCTA | 1.01
144 | TCGTGCGAGG | 0.995
145 | TCGTTGTT | 0.972
146 | ACGGTTTTGG | 0.979
147 | GATCCTGACT | 1.27
148 | ACTTTGAGTA | 0.953
149 | GTGATTTTTC | 0.924
150 | AGGCAGGCCG | 1.03
151 | CCGGGCAGAT | 1.84
152 | ATGCAAGTAT | 0.962
153 | TTTCTTCTTA | 0.942
154 | GCGGGACGCG | 1.04
155 | GATCACACTC | 1
156 | GGTGGTATCT | 0.988
157 | CTTGTTTATC | 0.973
